{"source": "the supplement of paper PMC10681739", "note": "In all, about 2,700 sequences were measured (“arbitrary fluorescence units”: median about 4,100, highest 2% from about 54,000 on). The list shows a part of the results."}
{"target": "T1, ETS1 (UniProt P14921)", "T1 sequence": "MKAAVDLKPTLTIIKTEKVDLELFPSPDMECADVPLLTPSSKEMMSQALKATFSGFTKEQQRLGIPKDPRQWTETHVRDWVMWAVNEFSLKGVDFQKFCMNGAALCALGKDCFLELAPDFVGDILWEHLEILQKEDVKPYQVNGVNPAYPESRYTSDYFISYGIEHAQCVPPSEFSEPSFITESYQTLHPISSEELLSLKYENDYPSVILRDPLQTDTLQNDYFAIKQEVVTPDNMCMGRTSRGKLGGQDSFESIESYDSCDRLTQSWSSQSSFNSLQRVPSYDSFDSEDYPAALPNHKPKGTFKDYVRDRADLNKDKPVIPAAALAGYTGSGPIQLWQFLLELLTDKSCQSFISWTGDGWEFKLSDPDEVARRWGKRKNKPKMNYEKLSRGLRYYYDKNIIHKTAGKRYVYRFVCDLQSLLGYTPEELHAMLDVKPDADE", "assay": "ETS1 binding intensity (PBM fluorescence) (arbitrary fluorescence units); higher = stronger binding", "conditions": "ETS1 concentration 10 nM", "method": "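gcPBM on wild-type 36-bp genomic probes with two neighbouring ETS1 sites (4-24 bp apart). Recombinant human ETS1 (10 nM) was detected with anti-ETS1 antibody fluorescence. Values are medians over 3 replicate spots. The probes sit in constant array flanks that are not printed.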"}
{"sequence": "GCGCAGCGGAACCTCCCGGCTCCAGGTTCCGGTTTC", "ETS1 binding intensity": 537}
{"sequence": "CCACCATGACTTCCTTCAGCACTTCCTGTCTAGAGC", "ETS1 binding intensity": 24000}
{"sequence": "CCCGGGCTTTTCCTGCGGAGCTCAGGAAGCCGGCCT", "ETS1 binding intensity": 1470}
{"sequence": "TGAGAGCAGAGCAGGAAACGGGAAGAACCATTCTCT", "ETS1 binding intensity": 1540}
{"sequence": "ACACCTTCCGGCAGATGTGGGGCGATGAGGAAGTTG", "ETS1 binding intensity": 16100}
{"sequence": "AGTTCTGACTTCCTGCTGAAGGCTTCCTCACATTGA", "ETS1 binding intensity": 20200}
{"sequence": "ACCTGCATTCTACTTCCTGTTTCCTACTTTAAAGTG", "ETS1 binding intensity": 31700}
{"sequence": "GTCACCACATCCTGAGGCTTCTCATTTCCTTTCTAC", "ETS1 binding intensity": 6290}
{"sequence": "CTGCTGGCAGGGAGGAAGCAGGAAATTAAACGGTGT", "ETS1 binding intensity": 1260}
{"sequence": "TCGGCCGGAAGCGGAGGGAGCGCTGCTTCCGGAGTC", "ETS1 binding intensity": 15800}
{"sequence": "CATCAACAGGAAGTGGCAGGGCCAGGATGGACTTGA", "ETS1 binding intensity": 17200}
{"sequence": "TGCAAAGCATCCTGGGTGCCAGGCTTCCTGGGGCTT", "ETS1 binding intensity": 1890}
{"sequence": "CTCTTGAAAGCTTCCGAGGAGAGGAAACGTACTTCA", "ETS1 binding intensity": 256}
{"sequence": "ACCACATCCTCCCCCACAGCCCTCAGGAGGAAGCGG", "ETS1 binding intensity": 9350}
{"sequence": "CGAGGGCGGGGACTTCCCCAGGAAGCGGGGACCCAC", "ETS1 binding intensity": 448}
{"sequence": "CCGCGCCCCTTCCGCGCAGTCTCCTTCCGCGTCACC", "ETS1 binding intensity": 761}
{"sequence": "AGAACGTTTCCGCGGCCTGCCTGTCTTCCGGGCCTT", "ETS1 binding intensity": 2910}
{"sequence": "GACTACGTTTCCTTGGCCTTAGAAGGAAACAGCCAC", "ETS1 binding intensity": 615}
{"sequence": "TTCTACATCCTGCTTCTTATAGGACCCGGAAGAGGA", "ETS1 binding intensity": 28000}
{"sequence": "AAGAGGAAACAGGTGTGTAAAGCCAGGCTTCCTCTC", "ETS1 binding intensity": 208}
{"sequence": "AATTCAGGAAACAACAGATGCTGGAGAGGATGTGGA", "ETS1 binding intensity": 405}
{"sequence": "CTACAGGAAGTCACGACAGACAACAGAGGAAGTCCA", "ETS1 binding intensity": 10600}
{"sequence": "ACCGAGGGGAAGTTGGGGTACCGGTTTCCGCCGCCA", "ETS1 binding intensity": 1300}
{"sequence": "TTTTCTCCCTCACTTCCGCTTCCGCCTCGGCTCAGC", "ETS1 binding intensity": 34300}
{"sequence": "TCGCTGAGCAGGAAAAGCTAGTTTCCGCCGTCTGGG", "ETS1 binding intensity": 1640}
{"sequence": "CTTTAATCCGGTTTCTTCTCCCCTCTGGGAAGTTTC", "ETS1 binding intensity": 2590}
{"sequence": "GCAGAGGAAGCCTCTCCACGGCTGGACTTCCTACCG", "ETS1 binding intensity": 258}
{"sequence": "TCCCGCCCCCGGCCGGAAGTTCCGGCGGCGGAGCTG", "ETS1 binding intensity": 14900}
{"sequence": "GAAATAGGAAGTGAATGTGAAAGCCTAGGATGTTAC", "ETS1 binding intensity": 2210}
{"sequence": "GTAGTCCGCCGTTCCGCCGCGCTTCCGGACACGTCC", "ETS1 binding intensity": 2920}
{"sequence": "TAATTGGGGAAGTGGTTTTGGGGACAGGAAGCCAGT", "ETS1 binding intensity": 487}
{"sequence": "CCCGCATCCGCTGCGGGAGTCCGAGCCGGAACCACA", "ETS1 binding intensity": 19800}
{"sequence": "GCAGTACGGGAAATAAACACACACAGGAAGTCGTTT", "ETS1 binding intensity": 2620}
{"sequence": "ATTCTCATCCTGTTAGTCATTCAACAGGAATGATTT", "ETS1 binding intensity": 7490}
{"sequence": "CGCGACTTCCGTGCAGCCCTAGCCACTTCCGGCGCG", "ETS1 binding intensity": 21700}
{"sequence": "CGGGACCGGAAGTGACGCAGAGAAGTTTCCGGGACT", "ETS1 binding intensity": 56800}
{"sequence": "TTTCTCCTTCCTGATCCCAATTTTCAGGAAGCTCAC", "ETS1 binding intensity": 1310}
{"sequence": "TTTTTTTTCTTCCTGCTAAGAACAGGAAATTGCAGA", "ETS1 binding intensity": 3580}
{"sequence": "CCCACCAGGAAACCAGCACACCTGGCTTCCTTCTTT", "ETS1 binding intensity": 638}
{"sequence": "GAGGGTAACTTCCTGTTTCTGCCTTCCGGGTTTGAG", "ETS1 binding intensity": 47100}
{"sequence": "CAGGCAGGAAACACCTGTCTGGTGGCTTCCTGTGAC", "ETS1 binding intensity": 5170}
{"sequence": "TTGCAGCCTTTTCCGGGCGGCTTTTCCGCGCAGGCG", "ETS1 binding intensity": 3280}
{"sequence": "TAAAAAGGAAACAACAGGTGCTGGAGAGGATGTGGA", "ETS1 binding intensity": 222}
{"sequence": "TTTAGGTGTTTCCTGGTTAGTGACTTCCTCTTTGCA", "ETS1 binding intensity": 7310}
{"sequence": "TCATACCGCGGCCGGAAACCGGAAGCGCCCGCCGGG", "ETS1 binding intensity": 11900}
{"sequence": "ACTGACAGGAAATAAATAATAAAAAGGGAAATGCAC", "ETS1 binding intensity": 10100}
{"sequence": "CTGCCGGAAGTTGGGGCGGTGCCTTCGCTTCCGCGG", "ETS1 binding intensity": 16300}
{"sequence": "GGGTTGGGAAAGTTTCCTCTTTCCGCCGTTTGGAAT", "ETS1 binding intensity": 1760}
{"sequence": "TTACCGCCACTTCCGGGGGCGCAGGAAATGCGCGTT", "ETS1 binding intensity": 35600}
{"sequence": "CGGGCGGAAAGGGAGCTAGAGCATTCTGGGAAATGG", "ETS1 binding intensity": 178}
{"sequence": "CGTGGCAGGATGTGGTTGACCTGAACTTCCTGTGAA", "ETS1 binding intensity": 7490}
{"sequence": "GAGCCCAGGAAGGAGGCTCCGCTGGTTCCGCTGGGT", "ETS1 binding intensity": 264}
{"sequence": "CCGGTTCCGGCCAGGAACGGGAAGTGCCTCATTATA", "ETS1 binding intensity": 8430}
{"sequence": "GGACCGGAAGTGCCTCCTGCGGAGGCAGGAAGTCCC", "ETS1 binding intensity": 58700}
{"sequence": "GTCACAACACAGGATGTTGCGAGGAAACAAGGGTGG", "ETS1 binding intensity": 4890}
{"sequence": "CCCAGCCTGCCATCCTGTCAGAGGAAATGAAATGTA", "ETS1 binding intensity": 2820}
{"sequence": "GCGGCCTTCCTGGGGACAGATGATAACATCCTGTTC", "ETS1 binding intensity": 4570}
{"sequence": "ACCCGTGAGGATGTGGGGGTTGAAAGGAAACAGTGT", "ETS1 binding intensity": 387}
{"sequence": "CCTGTCACTTCCTGGACGCTGGTCAGGAAGCTGTGG", "ETS1 binding intensity": 13500}
{"sequence": "CGTCCGCGATGGCGGAAGCGGAAACGCGCGGAGGCG", "ETS1 binding intensity": 4190}
{"sequence": "TCAACAGGAACTTAGAGGCGCAGGCCCGGAAAAGGC", "ETS1 binding intensity": 397}
{"sequence": "ATTGCCAACAGGAAAACCATCACTTCCTGCCTTATT", "ETS1 binding intensity": 6780}
{"sequence": "CTCCCGGAAACAATTTTTCCCTAGACCCGGAAGCAG", "ETS1 binding intensity": 3510}
{"sequence": "GCCCACATCCGGCCCCTCCTTGCCCCGGAACCTCCT", "ETS1 binding intensity": 70100}
{"sequence": "ACCTGCCACTTCCTCCTTCAGTCAGGATATGACTTC", "ETS1 binding intensity": 17700}
{"sequence": "CCGGCCACTTCCGACGCAAGAACCGGAAGCCATGGC", "ETS1 binding intensity": 17000}
{"sequence": "GCCGCCGGGTGTCGGAAGCGGATGTATGTGACCGCC", "ETS1 binding intensity": 2720}
{"sequence": "GCGACGGAAGTGACGTCAGACACAGCGCTTCCGGCG", "ETS1 binding intensity": 16700}
{"sequence": "CCGGCTTGGTTTCCTCGCTTTAGGAAACTCTCTTGG", "ETS1 binding intensity": 245}
{"sequence": "GCCCCACTTCCCTCCCGCGGTCACACTTCCGGCGGC", "ETS1 binding intensity": 12500}
{"sequence": "TGCGCCCCGTGCTTCCTGCCATCCTGTGCTCTCTGC", "ETS1 binding intensity": 9740}
{"sequence": "CTTTTTTTTTCTTCCTGAGACAGGAAGTCCCAGGCT", "ETS1 binding intensity": 3330}
{"sequence": "GGGCTGACCCAACTTCCTCCGGAAGGGGCGCTCTGC", "ETS1 binding intensity": 4080}
{"sequence": "ACACAGGATGGTGACTGCTGTCTCATACATCCTGCT", "ETS1 binding intensity": 605}
{"sequence": "CAACAGGAAGTCGGCACCACTACACCACTTCCGCTT", "ETS1 binding intensity": 18600}
{"sequence": "AGCCGTGGTTCCGGGTCTGCAATGTTCCGGCGTGGG", "ETS1 binding intensity": 1010}
{"sequence": "TACACCCGGAAGTGTCTTCAGGGAGAGGAAGCCGGC", "ETS1 binding intensity": 12800}
{"sequence": "CCACAGGAAGTAAAAAATGCCATTTTACTTCCTCTG", "ETS1 binding intensity": 5330}
{"sequence": "GGCTGTTGGCAGGAAGCCTCACTTCCTTGCCACATG", "ETS1 binding intensity": 2790}
{"sequence": "TGGTAGCCAGGAAGTGGAGCAACAGGAACTCTCATT", "ETS1 binding intensity": 4270}
